Source: a compilation of properties of binary mixtures (doi:10.1016/j.molliq.2020.114720)
Some of these densities may be calculated back from excess volumes.

Assay: xn = mol fraction of the nth substance listed
Conditions: 101 kPa

CC(=O)[O-].CCCCC[n+]1ccccc1 + O
mass density [kg/m3]
Conditions	x1 = 0.9036	x1 = 0.9143	x1 = 0.9294	x1 = 0.9469	x1 = 0.9706	x2 = 0.0046
293.15 K	1267.1	1267.5	–	1268.6	1269.6	1270.6
298.15 K	1264.1	1264.5	1265	1265.7	1266.7	1267.9
303.15 K	1261	1261.4	1261.8	1262.7	1263.8	1264.9
308.15 K	1258	1258.4	1258.9	1259.7	1260.8	1261.9
313.15 K	1255	1255.5	1255.9	1256.8	1257.8	–
318.15 K	1252	1252.4	1253	1254	1254.8	1255.9
323.15 K	1249	1249.7	–	–	1251.8	1252.9
328.15 K	1245.9	1246.6	1247.1	–	–	1250
333.15 K	1242.8	–	1244	1244.9	1245.8	1247
338.15 K	1239.9	–	1241	1242	–	1244
343.15 K	1237.1	1237.7	1238.2	1239	1239.8	1241.1
